Measurements: PubChem BioAssay AID1347165 (National Center for Advancing Translational Sciences (NCATS), 2019)
The whole screen tested about 220,000 compounds, of which about 5,700 (2.6%) were called active. The inconclusive results got no clear call from the source; some entries with a clear call stand among them for comparison. Calls follow the shape of the dose curve; as a rule, active = well fitted inhibition curve with a large enough effect; inconclusive = small, poorly fitted or top-dose-only effect; inactive = no such curve, though single readings can be large or run the other way. Potencies beside an inconclusive call are fits to weak or partial responses and may not hold up.

Biological target: Lysine-specific demethylase 5B (Homo sapiens) (UniProt Q9UGL1)
UniProt Q9UGL1, sequence (Q9UGL1 whole entry, looked up): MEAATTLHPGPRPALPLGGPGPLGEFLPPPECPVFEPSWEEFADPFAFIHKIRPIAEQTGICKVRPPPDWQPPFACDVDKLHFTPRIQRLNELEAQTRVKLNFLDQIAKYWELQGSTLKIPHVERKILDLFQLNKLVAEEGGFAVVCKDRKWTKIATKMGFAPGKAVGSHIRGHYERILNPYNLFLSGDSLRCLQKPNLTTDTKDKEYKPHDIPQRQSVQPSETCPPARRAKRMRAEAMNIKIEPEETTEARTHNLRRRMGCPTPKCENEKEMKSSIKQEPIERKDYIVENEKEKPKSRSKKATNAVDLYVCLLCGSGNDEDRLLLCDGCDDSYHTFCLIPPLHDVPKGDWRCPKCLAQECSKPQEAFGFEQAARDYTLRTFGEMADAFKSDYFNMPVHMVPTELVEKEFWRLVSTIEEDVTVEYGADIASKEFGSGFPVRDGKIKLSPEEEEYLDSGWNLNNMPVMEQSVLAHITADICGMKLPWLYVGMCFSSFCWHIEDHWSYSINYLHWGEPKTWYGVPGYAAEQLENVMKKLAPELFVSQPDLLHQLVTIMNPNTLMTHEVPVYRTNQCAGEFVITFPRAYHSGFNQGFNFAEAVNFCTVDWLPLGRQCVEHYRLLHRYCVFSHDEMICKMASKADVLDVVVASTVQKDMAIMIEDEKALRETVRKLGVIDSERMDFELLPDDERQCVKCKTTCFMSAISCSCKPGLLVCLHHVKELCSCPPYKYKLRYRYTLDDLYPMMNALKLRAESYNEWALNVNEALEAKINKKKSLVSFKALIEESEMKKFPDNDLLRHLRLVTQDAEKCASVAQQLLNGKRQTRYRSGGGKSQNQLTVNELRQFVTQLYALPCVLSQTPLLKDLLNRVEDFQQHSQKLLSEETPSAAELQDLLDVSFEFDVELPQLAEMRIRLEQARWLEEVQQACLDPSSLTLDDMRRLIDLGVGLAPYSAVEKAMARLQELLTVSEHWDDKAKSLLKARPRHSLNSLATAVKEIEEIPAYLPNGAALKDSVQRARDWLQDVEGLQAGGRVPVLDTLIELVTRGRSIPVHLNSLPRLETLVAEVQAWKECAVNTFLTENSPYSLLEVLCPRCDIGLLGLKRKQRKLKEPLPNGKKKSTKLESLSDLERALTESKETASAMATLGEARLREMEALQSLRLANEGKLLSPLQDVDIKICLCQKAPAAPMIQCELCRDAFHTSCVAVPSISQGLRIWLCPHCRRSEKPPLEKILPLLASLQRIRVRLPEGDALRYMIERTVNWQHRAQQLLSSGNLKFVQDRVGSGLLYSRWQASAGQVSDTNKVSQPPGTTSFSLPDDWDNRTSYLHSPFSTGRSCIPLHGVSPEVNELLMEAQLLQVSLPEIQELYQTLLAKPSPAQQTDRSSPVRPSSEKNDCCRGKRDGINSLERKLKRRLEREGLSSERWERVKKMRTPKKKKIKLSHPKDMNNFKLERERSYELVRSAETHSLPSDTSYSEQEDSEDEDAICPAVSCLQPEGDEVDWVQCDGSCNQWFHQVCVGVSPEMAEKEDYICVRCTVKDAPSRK
Assay: Primary screen for KDM5B Histone Demethylases FDH-coupled qHTS; also: nearly all actives have a fitted effect of over 70% in size; as to activity change, negative = inhibition: 0% is about no effect
Details: FDH-coupled NADH fluorescence (FDH is formaldehyde dehydrogenase); activity change, negative = inhibition: at 57.7 µM (top of the series) unless noted
How it was run: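 qHTS format, multiple compound concentrations. Buffer 50 mM HEPES pH 7.5/0.01% Tween-20; 200 nM KDM5BΔAP final; 10 min compound preincubation; substrate-mix levels 12.5 µM peptide, 25 µM α-KG, 0.25 mM NAD⁺; 30 min RT; ΔRFU.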
Potency is read from the fitted curve at half-maximal effect; tags tell the direction and shape of the fitted curve.

| SMILES | Potency | activity change, negative = inhibition |
| --- | --- | --- |
| O=C(NCCc1ccc(Cl)cc1)c1nc(-c2ccc(Cl)nc2)c2ccccn12 | active: 50.1 µM | – |
| CCCCN(CC)CCCNC(=O)c1sc2nc(C)cc(C)c2c1-n1cccc1 | inconclusive: 3.98 µM [inhibitor, partial curve, poor fit] | – |
| O=C(C[C@@H]1CCNC[C@@H]1Cc1cc(-c2ccccc2)on1)N1CCc2ccccc2C1 | inconclusive: 35.5 µM [inhibitor, partial curve] | – |
| CN1CCCN(C[C@@H]2CN(C(=O)C3(Cn4cccn4)CC3)C[C@@H]2CO)CC1 | inconclusive: 15.8 µM [inhibitor, partial curve, poor fit] | – |
| Cc1[nH]c(C)c(S(=O)(=O)NCCC(=O)NCc2ccc(F)cc2)c1C(=O)N1CCCC1 | – | inactive: 10.2% |
| CSCc1ccc(N2CCC(C(C)N3CCCC3)CC2)nc1 (stereo not given) | inconclusive: 25.1 µM [inhibitor, single point] | – |
| O=C(/C=C/c1ccc(O)cc1)c1cccc(Br)c1 | inconclusive: 39.8 µM [inhibitor, single point] | – |
| COc1ccc(-n2nc(C)cc2Nc2ccccc2C(=O)O)cc1 | – | inactive: -18.1% |
| COP(=O)(OC)c1nc(-c2ccco2)oc1NCc1ccc(F)cc1 | inconclusive: 25.1 µM [inhibitor, partial curve, poor fit] | – |
| O=C(O)C1CCc2nnc(C3CCCN(C(=O)c4ccc5c(c4)OC(F)(F)O5)C3)n21 (stereo not given) | – | inactive: 19% [at 115 µM] |
| Cc1cccc(OCC2(CNC(=O)c3ccc(F)cc3)C[C@@H](O)[C@@H](O)C2)n1 (stereo not given in full) | inconclusive: 35.5 µM [inhibitor, partial curve] | – |
| Oc1ccc(C(c2c[nH]c3ccccc23)c2c[nH]c3ccccc23)cc1 | inconclusive: 20 µM [inhibitor, single point] | – |
| CCOC(=O)c1c(NC(=O)/C=C/c2ccc(OCC)cc2)sc(C)c1C | – | inconclusive: -41.9% [inhibitor] |
| CCN(CC)C(=O)Cn1ccn2nc(-c3ccccc3)c(CO)c2c1=O | – | inactive: -7.73% |
| CC(=O)NCCNC(=O)CCc1ncc(-c2ccc(Cl)cc2Cl)o1 | – | inactive: 18.5% |
| COc1ccc2nc(Nc3nc(C)c(Cc4ccc(Cl)cc4)c(=O)[nH]3)nc(C)c2c1 | – | inactive: 9.78% |
| N#Cc1ccc(CN2CCCC(c3nccn3Cc3ccccc3)C2)cc1 (stereo not given) | inconclusive: 22.4 µM [inhibitor, single point] | – |
| CC(=O)c1cc2c(cc1N/C(=N/S(=O)(=O)c1ccc(C)cc1)c1ccccc1)OCO2 | inconclusive: 31.6 µM [inhibitor, partial curve, poor fit] | – |
| COc1cc(NC(=O)N2CCC(NS(=O)(=O)c3ccc(Cl)cc3)CC2)cc(OC)c1 | – | inactive: 0.0759% |
| COc1cccc(-c2cc(C(F)(F)F)nc(N3CCN(Cc4ccccc4)CC3)n2)c1 | – | inactive: -13% |
| COc1ccc(C2(C(=O)NCCn3c(C)cnc3-c3cccnc3)CC2)cc1 | inconclusive: 22.4 µM [inhibitor, single point] | – |
| Cc1ccc2c(C(=O)NC3CC3)cnn2c1 | inconclusive: 35.5 µM [inhibitor, partial curve, poor fit] | – |

| SMILES | Potency | activity change, negative = inhibition |
| --- | --- | --- |
| CC(C)(C)c1ccc(NC(=O)C2CCCN(c3cnccn3)C2)cc1 (stereo not given) | inconclusive: 31.6 µM [inhibitor, partial curve, poor fit] | – |
| Cc1c(C(=O)OCC(=O)NCC2CCCO2)sc2cccc(F)c12 (stereo not given) | inconclusive: 2 µM [inhibitor, full curve, poor fit] | – |
| CCn1c(CNC(C)c2ccccc2)nc2cc(S(=O)(=O)N3CCOCC3)ccc21 (stereo not given) | – | inactive: 26.8% |
| CN(C(=O)c1cc(=O)[nH]c2ccccc12)c1ccccc1 | – | inactive: -4.11% |
| CC1CCCN(CCCNC(=O)c2ccc3c(c2)N(Cc2ccccc2F)C(=O)c2ccccc2S3(=O)=O)C1 (stereo not given) | inconclusive: 12.6 µM [inhibitor, partial curve, poor fit] | – |
| COc1ccccc1/C=C/c1nc(C#N)c(N2CCN(Cc3ccccc3)CC2)o1 | inconclusive: 3.16 µM [inhibitor, full curve, poor fit] | – |
| CC(C)CCN1CCC2(C1)C(=O)N(c1ccccc1)c1ccccc12 (stereo not given) | inconclusive: 56.2 µM [inhibitor, partial curve, poor fit] | – |
| COc1ccc(CN2CCc3nc(C(C)C)nc(-c4ccc(O)cc4)c3C2)cc1 | inconclusive: 35.5 µM [inhibitor, partial curve, poor fit] | – |
| Cc1ccc(C)c(N2CCN(C(=O)c3ccc(NC(=O)c4nsc5ccccc45)cc3)CC2)c1 | inconclusive: 25.1 µM [inhibitor, single point] | – |
| CCc1ccccc1NC(=O)Nc1c[nH]c(=O)[nH]c1=O | inconclusive: 15.8 µM [inhibitor, partial curve, poor fit] | – |
| CCc1ccc(NC(=S)NCCCO)cc1 | – | inactive: -25.4% |
| COc1cc(C(=O)Oc2c(Sc3ccccc3)c(C)nn2-c2ccccc2)cc(OC)c1OC | inconclusive: 7.08 µM [inhibitor, partial curve, poor fit] | – |
| Cc1nn(-c2ccccc2)c(OC(=O)C(C)C)c1Sc1ccc(Cl)cc1 | inconclusive: 4.47 µM [inhibitor, partial curve, poor fit] | – |
| Cc1oc(-c2nc(C#N)c(NCCCN(C)C)o2)cc1S(=O)(=O)N1CCCC1 | inconclusive: 22.4 µM [inhibitor, partial curve, poor fit] | – |
| Cc1ccc(CNC(=O)CCCCCn2c(=O)[nH]c3ccccc3c2=O)cc1 | inconclusive: 17.8 µM [inhibitor, partial curve, poor fit] | – |
| COc1ccc(CN2CCNc3cnc(OCc4cccnc4)cc3C2)cc1O | – | inactive: -27.7% [at 86.2 µM] |
| CC(C)c1nnc(NC(=O)CC[C@H]2NC(=O)c3ccccc3NC2=O)s1 | inconclusive: 25.1 µM [inhibitor, single point] | – |
| CCc1ccc(-c2nn(C)c(=O)c3c2CCCC3)cc1S(=O)(=O)Nc1ccccc1 | – | inactive: -1.55% |
| CC(C)c1nc2c(c(-c3ccc(O)cc3)n1)CCN(C(=O)c1cccc(Cl)c1)CC2 | – | inactive: -21.6% |
| COc1ccc(C)cc1NC(=O)CSc1ccc(-c2ccco2)nn1 | inconclusive: 20 µM [inhibitor, single point] | – |
| Clc1ccc2oc([C@H]3CCN(Cc4ccccc4)C3)nc2c1 | inconclusive: 56.2 µM [inhibitor, single point] | – |
| CC(C)(C)c1ccc(-c2cc3ccccn3c2)cc1 | inconclusive: 39.8 µM [inhibitor, single point] | – |

| SMILES | Potency | activity change, negative = inhibition |
| --- | --- | --- |
| COc1ccc(C2C(C(=O)c3ccc(C)o3)=C(O)C(=O)N2Cc2cccnc2)cc1OC (stereo not given) | inconclusive: 22.4 µM [inhibitor, single point] | – |
| COc1ccc(C)cc1NC(=O)Cn1nc2ccc(SC3CCCCC3)nn2c1=O | – | inactive: -27.2% |
| COCCCNC(=O)c1cc(C)nc2onc(C3CCCNC3)c12 (stereo not given) | inconclusive: 56.2 µM [inhibitor, partial curve, poor fit] | – |
| CC(C(=O)Nc1ccc(Br)cc1)n1cnc2c1c(=O)n(C)c(=O)n2C (stereo not given) | – | inactive: -7.88% |
| CN(C)c1cccc(C(=O)NC2CCCN(c3cc(-c4ccccc4)[nH]n3)C2)c1 (stereo not given) | inconclusive: 25.1 µM [inhibitor, single point] | – |
| O=C(CS(=O)(=O)c1ccc2ccccc2c1)c1ccc(Br)cc1 | – | inactive: 13.1% |
| COc1ccccc1/C=C/c1nc2ccccc2n1C(C)C | inconclusive: 28.2 µM [inhibitor, partial curve, poor fit] | – |
| COC(=O)c1ccc(C)c(S(=O)(=O)Oc2ccc3ccc(=O)oc3c2)c1 | inconclusive: 25.1 µM [inhibitor, partial curve, poor fit] | – |
| CCOC(=O)Cn1c(=O)n(CC2CCCO2)c2nc(-c3ccc(C)cc3)nc(C(N)=O)c21 (stereo not given) | inconclusive: 3.16 µM [inhibitor, full curve, poor fit] | – |
| CC(=O)c1ccc(S(=O)(=O)N2CCn3cccc3C2c2ccc(C)cc2)cc1 (stereo not given) | inconclusive: 2 µM [inhibitor, partial curve, poor fit] | – |
| O=C(Cc1c[nH]c2ncc(-c3ccccc3)cc12)NCC1CCOCC1 | inconclusive: 31.6 µM [inhibitor, single point] | – |
| CC(C)c1ccc(C2=CC(c3ccc(C(C)C)cc3)n3nnnc3N2)cc1 (stereo not given) | inconclusive: 20 µM [inhibitor, single point] | – |
| Cc1ccc2nc3c(cc(C(=O)NCC4CCCO4)c(=N)n3C(C)C)c(=O)n2c1 (stereo not given) | inconclusive: 17.8 µM [inhibitor, partial curve, poor fit] | – |
| O=C1/C(=C/C=C/c2ccco2)SC(=S)N1NS(=O)(=O)c1ccccc1 | inconclusive: 25.1 µM [inhibitor, partial curve, poor fit] | – |
| CC(C)CNC(=O)CN1c2cccc3cccc(c23)S1(=O)=O | inconclusive: 22.4 µM [inhibitor, partial curve, poor fit] | – |
| O=C(CCC[C@H]1NC[C@@H]2CC1CN(Cc1ccccc1)C2)NCCCN1CCCCC1 | inconclusive: 20 µM [inhibitor, partial curve] | – |
| COc1ccc(CNC(=O)Cc2c(C)c3cc4c(C)coc4c(C)c3oc2=O)cc1 | – | inconclusive: -32.3% [inhibitor] |
| CCN(CC)Cc1cnc2c(C(=O)NCC(C)c3ccccc3)cnn2c1 (stereo not given) | inconclusive: 22.4 µM [inhibitor, partial curve, poor fit] | – |
| CCN1C(=O)C(Cc2c(OC)cc(OC)cc2OC)c2ccccc21 (stereo not given) | – | inactive: -10.3% |
| COc1ccc(Nc2oc(-c3ccc(Cl)cc3)nc2C#N)cc1 | inconclusive: 22.4 µM [inhibitor, partial curve, poor fit] | – |
| CN(C)C(=O)C1CN(C(=O)NC2CCCCC2)CC12CCOCC2 (stereo not given) | inconclusive: 39.8 µM [inhibitor, single point] | – |
